This experiment has as its target Genome polyprotein (dengue virus type 2) (UniProt P29990).
The mark [1] stands for this setting: Thailand/16681/1984, Concentration 25.0 uM, Number of replicates 1.0.

Structures are written as SMILES. In all, about 2,000 compounds went through this assay and about 110 (5.5%) showed an effect of 50% or more. The list shows a part of the results.

As to `O=Cc1ccc(N2CCC(C(=O)NC3(c4ccc(Cl)cc4)CC3)CC2)cc1`, under setting [1], the inhibition amounted to 12%.
In the case of `O=Cc1ccc(N2CCC(C(=O)Nc3cccc(OC(F)(F)F)c3)CC2)cc1`, the inhibition under setting [1] was found to be 12.8%.
Same read-out and setting: the figure for `C[C@H]1c2cc(O)c(O)cc2CCN1C(=O)C1CCN(c2ccc(C=O)cc2)CC1` is 17.9%; for `O=Cc1ccc(N2CCC(C(=O)NCCc3cc(Cl)cc(Cl)c3)CC2)cc1` it is 3%; for `O=Cc1ccc(N2CCC(C(=O)Nc3ncnc(Cl)c3Cl)CC2)cc1` it is 10.5%.
Still for that read-out and setting: the figure for `CN(CCc1ccccc1F)C(=O)C1CCN(c2ccc(C=O)cc2)CC1` is 13.4%; for `O=Cc1ccc(N2CCC(C(=O)Nc3cc(Cl)nc(Cl)n3)CC2)cc1` it is 9.01%.
Take `O=C(c1ccn([C@H]2CCCNC2)n1)N1CC[C@H](c2cc(O)[nH]n2)C1`: the inhibition runs as follows: (Thailand/16681/1984, Concentration 49.5 uM, Number of replicates 2.0, Standard deviation 1.1637955331347074 %) -0.564%; (Thailand/16681/1984, Concentration 99.01 uM, Number of replicates 2.0, Standard deviation 1.9960173414682696 %) -0.647%; (Thailand/16681/1984, Concentration 198.0 uM, Number of replicates 2.0, Standard deviation 0.8228288352338786 %) 0.485%.
As for `CC(=O)Nc1ccc(NC(=O)C2CCN(c3ccc(C=O)cc3)CC2)cc1`, the inhibition under setting [1] came out at 11.7%.
Still for that read-out and setting: the figure for `CN(C(=O)OC(C)(C)C)[C@H]1CCN(C(=O)C2CCN(c3ccc(C=O)cc3)CC2)C1` is 13.2%.
`COc1cc(Cc2ccc3c(c2)NC(=O)CO3)nc(N2CCNCC2)n1`: the inhibition runs as follows: (Thailand/16681/1984, Concentration 49.5 uM, Number of replicates 2.0, Standard deviation 1.2735661360709365 %) 0.402%; (Thailand/16681/1984, Concentration 99.01 uM, Number of replicates 2.0, Standard deviation 1.0906950907733215 %) 1.21%; (Thailand/16681/1984, Concentration 198.0 uM, Number of replicates 2.0, Standard deviation 1.0672920626867075 %) 3.16%.
Turning to `CCN(CCNC(=O)C1CCN(c2ccc(C=O)cc2)CC1)c1cccc(C)c1`, the inhibition under setting [1] was 11.3%.
As to `Cc1cc(CO)c2cccc(NC(=O)c3nc(N)n[nH]3)c2n1`, the inhibition (Thailand/16681/1984, Concentration 49.95 uM, Number of replicates 2.0, Standard deviation 1.7045480288991801 %) is 42.6% and the inhibition (Thailand/16681/1984, Concentration 99.9 uM, Number of replicates 2.0, Standard deviation 15.015963199334223 %) turned out to be 67.3%.
For the compound `CC(C)(CO)NC(=O)c1cc(Cl)cc(OCc2ccccn2)c1`, the inhibition (Thailand/16681/1984, Concentration 49.5 uM, Number of replicates 2.0, Standard deviation 3.9117339361958243 %) was -3.57%; the inhibition (Thailand/16681/1984, Concentration 99.01 uM, Number of replicates 2.0, Standard deviation 3.9139588683287148 %) is -3.56%; the inhibition (Thailand/16681/1984, Concentration 198.0 uM, Number of replicates 2.0, Standard deviation 3.978479645326132 %) is -2.33%.
For `Nc1nc(-c2ccccn2)nc2ccccc12`, the inhibition by setting is: (Thailand/16681/1984, Concentration 49.95 uM, Number of replicates 2.0, Standard deviation 3.830091149504826 %) -6.86%; (Thailand/16681/1984, Concentration 99.9 uM, Number of replicates 2.0, Standard deviation 4.2800616938003495 %) -7.08%.
As for `c1cc(CN2CCC(c3c[nH]c4cccnc34)CC2)c2[nH]ncc2c1`, the inhibition (Thailand/16681/1984, Concentration 49.5 uM, Number of replicates 2.0, Standard deviation 0.13607564437452646 %) was -0.037%; the inhibition (Thailand/16681/1984, Concentration 99.01 uM, Number of replicates 2.0, Standard deviation 0.023091583949542666 %) came out at 1.23%; the inhibition (Thailand/16681/1984, Concentration 198.0 uM, Number of replicates 2.0, Standard deviation 0.3422509545218043 %) was found to be 2.24%.
For the compound `Cn1cc(NC(=O)c2ccccc2C(F)(F)F)c(-c2ccc(F)nc2)n1`, the inhibition runs as follows: (Thailand/16681/1984, Concentration 49.5 uM, Number of replicates 2.0, Standard deviation 3.6499634215033607 %) -3.01%; (Thailand/16681/1984, Concentration 99.01 uM, Number of replicates 2.0, Standard deviation 1.5811035342397435 %) -2.37%; (Thailand/16681/1984, Concentration 198.0 uM, Number of replicates 2.0, Standard deviation 0.8634737807980869 %) -2.26%.
For the compound `Cc1cc(CO)c2cccc(NC(=O)c3ccc(O)cc3)c2n1`, the inhibition is, setting by setting: (Thailand/16681/1984, Concentration 49.95 uM, Number of replicates 2.0, Standard deviation 1.602531076316379 %) 8.29%; (Thailand/16681/1984, Concentration 99.9 uM, Number of replicates 2.0, Standard deviation 2.1632817459370886 %) 14.7%.
On to `NC(=O)C1(NC(=O)[C@]2(c3ccc(F)cc3)CCCNC2)CCOCC1`, for which the inhibition reads like this: (Thailand/16681/1984, Concentration 49.5 uM, Number of replicates 2.0, Standard deviation 9.453822696514678 %) 13.2%; (Thailand/16681/1984, Concentration 99.01 uM, Number of replicates 2.0, Standard deviation 0.7804642139567288 %) -6.29%; (Thailand/16681/1984, Concentration 198.0 uM, Number of replicates 2.0, Standard deviation 0.1899767510754608 %) -3.96%.
Take `COc1cc2c(cc1NC(=O)C1CCN(c3ccc(C=O)cc3)CC1)oc1ccccc12`: the inhibition under setting [1] came out at 14.1%.
For `CCc1cccc(S(=O)(=O)Nc2ccc(Cl)cc2C(=O)NC)c1`, the inhibition turned out to be 0.409% (Thailand/16681/1984, Concentration 49.5 uM, Number of replicates 2.0, Standard deviation 0.31892086155653854 %); 0.666% (Thailand/16681/1984, Concentration 99.01 uM, Number of replicates 2.0, Standard deviation 0.4824817381530084 %); 1.73% (Thailand/16681/1984, Concentration 198.0 uM, Number of replicates 2.0, Standard deviation 0.7239504320191382 %).
In the case of `O=Cc1ccc(N2CCC(C(=O)Nc3ccc4ccccc4c3O)CC2)cc1`, under setting [1], the inhibition was 22.9%.
Same read-out and setting: the figure for `O=Cc1ccc(N2CCC(C(=O)N3CCN(CCOCCO)CC3)CC2)cc1` is 12.7%; for `O=Cc1ccc(N2CCC(C(=O)N3CCC(C(F)(F)F)CC3)CC2)cc1` it is 14.9%.

What is called inhibition is the change of the read-out against control, counted positive when it falls.
